# Assay results from the supplement of paper PMC8728848.
# This is one part of the list.
# B1: Mg1lysM (Mycosphaerella graminicola) (protein)
# chain: QRNPITITPQFDCGATNSQQYVARSGDTLTKIAQEIYHDVVGVCDIARANNLADPNRIDAGTPYTIPINCQTYDRNSCL
# Key:
# Assay in all cases: glycan array binding signal (z-score within array); higher = stronger binding
# Settings in all cases: glycan notation: IUPAC condensed, linker removed
# [1] = target: Neu5Ac(a2-3)Gal(b1-3)GlcNAc(b1-6)GalNAc
# Method in brief: (§1)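 Glycan array data came from 3228 arrays in the Consortium for Functional Glycomics database, and only arrays with an available protein sequence were kept. Glycan names were put into IUPAC-condensed notation, and columns mapping to the same glycan were averaged. The binding signal is a within-array Z-score, averaged across arrays of one protein sequence run at different concentrations or buffers and across linkers. A negative Z-score can be read as non-binding.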
# [2] = target: Neu5Ac(a2-3)Gal(b1-3)GlcNAc6S
# Method in brief: as §1
# [3] = target: Neu5Ac(a2-3)Gal(b1-3)[Fuc(a1-4)]GlcNAc
# Method in brief: as §1
# [4] = target: Neu5Ac(a2-3)Gal(b1-3)[Fuc(a1-4)]GlcNAc(b1-3)Gal(b1-3)[Fuc(a1-4)]GlcNAc
# Method in brief: as §1
# [5] = target: Neu5Ac(a2-3)Gal(b1-3)[Fuc(a1-4)]GlcNAc(b1-3)Gal(b1-4)[Fuc(a1-3)]GlcNAc
# Method in brief: as §1
# [6] = target: Neu5Ac(a2-3)Gal(b1-3)[GlcNAc(b1-6)]GalNAc
# Method in brief: as §1
# [7] = target: Neu5Ac(a2-3)Gal(b1-3)[Neu5Ac(a2-6)]GalNAc
# Method in brief: as §1
# [8] = target: Neu5Ac(a2-3)Gal(b1-3)[Neu5Ac(a2-6)]GlcNAc(b1-3)[Fuc(a1-3)[Gal(b1-4)]GlcNAc(b1-6)]Gal(b1-4)Glc
# Method in brief: as §1
# [9] = target: Neu5Ac(a2-3)Gal(b1-3)]Neu5Ac(a2-3)Gal(b1-4)]GlcNAc
# Method in brief: as §1
# [10] = target: Neu5Ac(a2-3)Gal(b1-4)Glc
# Method in brief: as §1
# [11] = target: Neu5Ac(a2-3)Gal(b1-4)GlcNAc
# Method in brief: as §1
# [12] = target: Neu5Ac(a2-3)Gal(b1-4)GlcNAc(b1-2)Man
# Method in brief: as §1
# [13] = target: Neu5Ac(a2-3)Gal(b1-4)GlcNAc(b1-2)Man(a1-3)[GlcNAc(b1-4)][Neu5Ac(a2-3)Gal(b1-4)GlcNAc(b1-2)Man(a1-6)]Man(b1-4)GlcNAc(b1-4)GlcNAc
# Method in brief: as §1
# [14] = target: Neu5Ac(a2-3)Gal(b1-4)GlcNAc(b1-2)Man(a1-3)[Neu5Ac(a2-3)Gal(b1-4)GlcNAc(b1-2)Man(a1-6)]Man(b1-4)GlcNAc(b1-4)GlcNAc
# Method in brief: as §1
# [15] = target: Neu5Ac(a2-3)Gal(b1-4)GlcNAc(b1-2)Man(a1-3)[Neu5Ac(a2-3)Gal(b1-4)GlcNAc(b1-2)Man(a1-6)]Man(b1-4)GlcNAc(b1-4)[Fuc(a1-6)]GlcNAc
# Method in brief: as §1
# [16] = target: Neu5Ac(a2-3)Gal(b1-4)GlcNAc(b1-2)Man(a1-3)[Neu5Ac(a2-6)Gal(b1-4)GlcNAc(b1-2)Man(a1-6)]Man(b1-4)GlcNAc(b1-4)GlcNAc
# Method in brief: as §1
# [17] = target: Neu5Ac(a2-3)Gal(b1-4)GlcNAc(b1-2)[Neu5Ac(a2-3)Gal(b1-4)GlcNAc(b1-4)]Man(a1-3)[GlcNAc(b1-4)][Neu5Ac(a2-3)Gal(b1-4)GlcNAc(b1-2)[Neu5Ac(a2-3)Gal(b1-4)GlcNAc(b1-6)]Man(a1-6)]Man(b1-4)GlcNAc(b1-4)GlcNAc
# Method in brief: as §1
# [18] = target: Neu5Ac(a2-3)Gal(b1-4)GlcNAc(b1-2)[Neu5Ac(a2-3)Gal(b1-4)GlcNAc(b1-4)]Man(a1-3)[GlcNAc(b1-4)][Neu5Ac(a2-3)Gal(b1-4)GlcNAc(b1-4)Man(a1-6)]Man(b1-4)GlcNAc(b1-4)GlcNAc
# Method in brief: as §1
# [19] = target: Neu5Ac(a2-3)Gal(b1-4)GlcNAc(b1-2)[Neu5Ac(a2-3)Gal(b1-4)GlcNAc(b1-6)]Man(a1-6)[Neu5Ac(a2-3)Gal(b1-4)GlcNAc(b1-2)Man(a1-3)][GlcNAc(b1-4)]Man(b1-4)GlcNAc(b1-4)GlcNAc
# Method in brief: as §1
# [20] = target: Neu5Ac(a2-3)Gal(b1-4)GlcNAc(b1-3)Gal
# Method in brief: as §1
# [21] = target: Neu5Ac(a2-3)Gal(b1-4)GlcNAc(b1-3)Gal(b1-3)GlcNAc
# Method in brief: as §1
# [22] = target: Neu5Ac(a2-3)Gal(b1-4)GlcNAc(b1-3)Gal(b1-4)GlcNAc
# Method in brief: as §1
# [23] = target: Neu5Ac(a2-3)Gal(b1-4)GlcNAc(b1-3)Gal(b1-4)GlcNAc(b1-2)Man(a1-3)[Neu5Ac(a2-3)Gal(b1-4)GlcNAc(b1-3)Gal(b1-4)GlcNAc(b1-2)Man(a1-6)]Man(b1-4)GlcNAc(b1-4)GlcNAc
# Method in brief: as §1
# [24] = target: Neu5Ac(a2-3)Gal(b1-4)GlcNAc(b1-3)Gal(b1-4)GlcNAc(b1-3)Gal(b1-4)GlcNAc
# Method in brief: as §1
# [25] = target: Neu5Ac(a2-3)Gal(b1-4)GlcNAc(b1-3)Gal(b1-4)GlcNAc(b1-3)Gal(b1-4)GlcNAc(b1-2)Man(a1-3)[Neu5Ac(a2-3)Gal(b1-4)GlcNAc(b1-3)Gal(b1-4)GlcNAc(b1-3)Gal(b1-4)GlcNAc(b1-2)Man(a1-6)]GalNAc
# Method in brief: as §1
# [26] = target: Neu5Ac(a2-3)Gal(b1-4)GlcNAc(b1-3)Gal(b1-4)GlcNAc(b1-3)GalNAc
# Method in brief: as §1
# [27] = target: Neu5Ac(a2-3)Gal(b1-4)GlcNAc(b1-3)Gal(b1-4)GlcNAc(b1-3)[Neu5Ac(a2-3)Gal(b1-4)GlcNAc(b1-3)Gal(b1-4)GlcNAc(b1-6)]GalNAc
# Method in brief: as §1
# [28] = target: Neu5Ac(a2-3)Gal(b1-4)GlcNAc(b1-3)Gal(b1-4)GlcNAc(b1-6)[Gal(b1-3)]GalNAc
# Method in brief: as §1
# [29] = target: Neu5Ac(a2-3)Gal(b1-4)GlcNAc(b1-3)Gal(b1-4)[Fuc(a1-3)]GlcNAc
# Method in brief: as §1
# [30] = target: Neu5Ac(a2-3)Gal(b1-4)GlcNAc(b1-3)GalNAc
# Method in brief: as §1
# [31] = target: Neu5Ac(a2-3)Gal(b1-4)GlcNAc(b1-3)[Neu5Ac(a2-3)Gal(b1-4)GlcNAc(b1-6)]GalNAc
# Method in brief: as §1
# [32] = target: Neu5Ac(a2-3)Gal(b1-4)GlcNAc(b1-6)GalNAc
# Method in brief: as §1
# [33] = target: Neu5Ac(a2-3)Gal(b1-4)GlcNAc(b1-6)[Gal(b1-3)]GalNAc
# Method in brief: as §1
# [34] = target: Neu5Ac(a2-3)Gal(b1-4)GlcNAc(b1-6)[Neu5Ac(a2-3)Gal(b1-3)]GalNAc
# Method in brief: as §1
# [35] = target: Neu5Ac(a2-3)Gal(b1-4)GlcNAc6S
# Method in brief: as §1
# [36] = target: Neu5Ac(a2-3)Gal(b1-4)[Fuc(a1-3)]GlcNAc
# Method in brief: as §1
# [37] = target: Neu5Ac(a2-3)Gal(b1-4)[Fuc(a1-3)]GlcNAc(b1-2)Man
# Method in brief: as §1
# [38] = target: Neu5Ac(a2-3)Gal(b1-4)[Fuc(a1-3)]GlcNAc(b1-3)Gal
# Method in brief: as §1
# [39] = target: Neu5Ac(a2-3)Gal(b1-4)[Fuc(a1-3)]GlcNAc(b1-3)Gal(b1-4)GlcNAc
# Method in brief: as §1
# [40] = target: Neu5Ac(a2-3)Gal(b1-4)[Fuc(a1-3)]GlcNAc(b1-3)Gal(b1-4)[Fuc(a1-3)]GlcNAc(b1-3)Gal(b1-4)[Fuc(a1-3)]GlcNAc
# Method in brief: as §1
# [41] = target: Neu5Ac(a2-3)Gal(b1-4)[Fuc(a1-3)]GlcNAc(b1-3)GalNAc
# Method in brief: as §1
# [42] = target: Neu5Ac(a2-3)Gal(b1-4)[Fuc(a1-3)]GlcNAc(b1-6)[Gal(b1-3)]GalNAc
# Method in brief: as §1
# [43] = target: Neu5Ac(a2-3)Gal(b1-4)[Fuc(a1-3)]GlcNAc(b1-6)[Neu5Ac(a2-3)Gal(b1-3)]GalNAc
# Method in brief: as §1
# [44] = target: Neu5Ac(a2-3)Gal(b1-4)[Fuc(a1-3)]GlcNAc6S
# Method in brief: as §1
# [45] = target: Neu5Ac(a2-3)Gal6S(b1-4)GlcNAc
# Method in brief: as §1
binder,measurement,setting,value
B1,glycan array binding signal (z-score),[1],-0.051
same,glycan array binding signal (z-score),[2],-0.05
same,glycan array binding signal (z-score),[3],-0.096
same,glycan array binding signal (z-score),[4],-0.073
same,glycan array binding signal (z-score),[5],-0.071
same,glycan array binding signal (z-score),[6],-0.083
same,glycan array binding signal (z-score),[7],-0.079
same,glycan array binding signal (z-score),[8],-0.075
same,glycan array binding signal (z-score),[9],-0.077
same,glycan array binding signal (z-score),[10],-0.076
same,glycan array binding signal (z-score),[11],-0.068
same,glycan array binding signal (z-score),[12],-0.068
same,glycan array binding signal (z-score),[13],-0.076
same,glycan array binding signal (z-score),[14],-0.051
same,glycan array binding signal (z-score),[15],-0.06
same,glycan array binding signal (z-score),[16],-0.073
same,glycan array binding signal (z-score),[17],-0.082
same,glycan array binding signal (z-score),[18],-0.088
same,glycan array binding signal (z-score),[19],-0.074
same,glycan array binding signal (z-score),[20],-0.066
same,glycan array binding signal (z-score),[21],-0.08
same,glycan array binding signal (z-score),[22],-0.072
same,glycan array binding signal (z-score),[23],-0.062
same,glycan array binding signal (z-score),[24],-0.064
same,glycan array binding signal (z-score),[25],-0.071
same,glycan array binding signal (z-score),[26],-0.077
same,glycan array binding signal (z-score),[27],-0.073
same,glycan array binding signal (z-score),[28],-0.068
same,glycan array binding signal (z-score),[29],-0.09
same,glycan array binding signal (z-score),[30],-0.081
same,glycan array binding signal (z-score),[31],0.001
same,glycan array binding signal (z-score),[32],-0.063
same,glycan array binding signal (z-score),[33],-0.093
same,glycan array binding signal (z-score),[34],-0.062
same,glycan array binding signal (z-score),[35],-0.075
same,glycan array binding signal (z-score),[36],-0.073
same,glycan array binding signal (z-score),[37],-0.075
same,glycan array binding signal (z-score),[38],-0.079
same,glycan array binding signal (z-score),[39],-0.052
same,glycan array binding signal (z-score),[40],-0.047
same,glycan array binding signal (z-score),[41],-0.048
same,glycan array binding signal (z-score),[42],-0.059
same,glycan array binding signal (z-score),[43],-0.059
same,glycan array binding signal (z-score),[44],-0.092
same,glycan array binding signal (z-score),[45],-0.067
